From the supplement of paper PMC12632987
The full ranking holds about 4,500 sequences; the median of “median log2 fold change of GCK-ALFA target abundance (FLAG IP / Myc IP barcode read proportion)” is about 0.078, and the lowest 2% start at about -0.6. Some of the results follow.

B1: GBRAP_160_4257 (protein)
chain: MEKREELIKEAEEDRDEILELVDTESAADVKTFAVVEMGSIIMEAIDLEVISDEEEDELMAIRDDLEADLTAAANASKDTIKAIITKYYDKLIELLKKAK
B2: GBRAP_184_5128 (protein)
chain: ELVNRAVEGTKAEELIKKAKEVVEEAKAKGKKLNLAVFAENMSVEEIIEVIKALGEIKKKYPEVNITLVVEDELSEEEIDKLVKEADENGVNLVLAIKEE
B3: GBRAP_57_6455 (protein)
chain: MSRLEKLKEAVERARELIEAGAPEEEIREAVREAVDALSEEDALDVLLQVDPEADPELSLEEVRERLVELVMEALRTEGPEAAKRLLDLALGQAEMSELE
B4: GBRAP_11_2848 (protein)
chain: EKEKLEEVAKQAEKLIELLEKLIKEGVDNEELLEEVEKQMEELLKLVEELGNESLKKIAEIAKENIEKIKTDPSNKEFYANNALAAVRTLRGQALLEIEE
B5: GBRAP_160_4606 (protein)
chain: SEKIEEFKKLVKELFEEAKEMIKGQTTEERATIVDVTFGEIILEAIELEVLSDEAIDKIAAIGDATVATILANPDLTDEEIKALIDEAEKKILEILDEEE
B6: GBRAP_74_6549 (protein)
chain: SEELLKEAEEAAKAKDLAKLVELAREALEAGDKETAARILSLLLKTFVENKDEVTLEEADALADVIDEVLASGITELLSREDLKLLVEALAHAQELEAAA
B7: GBRAP_160_4819 (protein)
chain: SSKLEEVLKEIDEAEKRVLEVADTESVAQAATMFEGEFGSLILELEEKGYVSDEALDKIKEIVDETVAYLKANPDLSVEEVKKLITEASKKIKEIIEKDA
B8: GBRAP_52_5855 (protein)
chain: SKEKMRKLAEELLKLKLAGKEEELEKKVKELVATLSEEEILELLKELAELAKKANKEEAEAIAEVAELLADEAEKAGFDEDELSYELAKVYAAAYKVLQK
B9: GBRAP_125_3062 (protein)
chain: AKAANIANLETIARALGYSEDDIAELRKLAEAGSIKNTLIAIALAEGREELAEALARLTEEETAAVLAELAAELAANPELTPEEVLELLLELARRALAAR
B10: GBRAP_184_5237 (protein)
chain: KVLVRTVRAKDAEELRAKLEEVRAEARAEGAVVELIIEVEELTPEKVDVIAEMIAEMAAEGLLTLVEVVSSTPIPEEHIDRLVAAADAAGVRLVIAEPDP
B11: GBRAP_64_6483 (protein)
chain: MEEIEELLKKALEYIEKALELAKKENPEIAKLLEEAKKLLEEAKEKDLEEAADLVAEVADILNEILKNPELSEELKELVSEALDYVSEALWELEEEIEEK
B12: GBRAP_160_4341 (protein)
chain: SERIEKLKEYVNEEFEETKELIEGLSIEQRRVLIEGTLGEIAMELAEDESISDETVDKVIEIRDETIEYLKEHPDLSLEEIKELIDEAREKIIEILEESE
B13: GBRAP_160_4128 (protein)
chain: SSKIKKAVEDMKEDLIETWKATKDLPIDERVKILRAEAYTDLLAMHEELNLSDETFDKLLEVVDKMLEEIRANPNLTDEEVEALIEKMAEEILKIIEEEK
B14: GBRAP_117_2603 (protein)
chain: MSKREKAKKLAKELVELIRKALEEKKTLTPEEREKLEKETLEKVTKIVKEMLELTSEDELEELFAEATKDLTPEERVEAYIIYYEALAEALDERKKEEEE
B15: GBRAP_53_6399 (protein)
chain: NEEEIKKLKEEILKLAKEAAKADEEERAKLVKEIGKALKELVKAGMPEEEITELAREVAKTLKEAGASDRDLVALANTLASLGREEATAEVGEVAVEDLE
B16: GBRAP_52_6362 (protein)
chain: SLEKALELLRKAVEAELAGDEERAEAILREIVANFSEETILEAVKKLAEEIKTKTLEEAEAFLETAIRLADIMLEAGRDEAVADEIEAIAAKAYMEVLKK
B17: GBRAP_128_3385 (protein)
chain: VDPEVIERAKELAERLVKASLEEVPALTREIIEYLATLSPEEQEVLLEELEKAAKKMSLEKLEAFLDTLREERPKLDPETQAFVNELMVEIGEEILEKEE
B18: GBRAP_11_2873 (protein)
chain: DKEKLKKMLELAEELAKLLEELLKKGVDDEELRKKIEEKVEELSKLVKEHGDEAEKKLVEILKELVEKAKKDKENAEEYVKEALAAARVLAGQYLLKLEE
B19: GBRAP_184_5359 (protein)
chain: EVKVVEIEAETKEEALKKLKEAKEKIEKEKKETNVYVFLKNADLETVEAVAKELAEMKKEGLIKNAIIDVLDEKSEEEVDKMVEIADKYGIRLVVALEDE

These binders were tested against GABARAP, O95166 (assay: median log2 fold change of GCK-ALFA target abundance (FLAG IP / Myc IP barcode read proportion) (log2 ratio); each designed protein is fused to an ALFA-tag nanobody in HEK293 cells to bring the named protein to FLAG-tagged glucokinase (GCK); Myc marks an untargeted standard; higher = target protein stabilised (more abundant)). Settings: target protein: 3xFLAG-MCP-GCK-ALFA reporter; HEK293 landing pad (RPLP).
Outline: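 The readout is target abundance, the per-binder median log2 ratio of FLAG to Myc barcode read proportions. It came from HEK293 landing-pad cells carrying a recombined ALFA-nanobody-fused binder library, induced with 2 μg mL^−1 doxycycline and transfected with a plasmid for a FLAG-tagged target and a Myc-tagged standard. After 48 h, lysates were immunoprecipitated with anti-FLAG and anti-Myc, and circular RNA barcodes were reverse transcribed, amplified and sequenced. Each barcode needed a proportion of at least 10^−7 in both replicates and each binder at least 3 barcodes per replicate, a pseudocount of 10^−6 was added, and the replicates were pooled.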

Sequence of GABARAP, O95166 (O95166 whole entry, the tested form may be a part): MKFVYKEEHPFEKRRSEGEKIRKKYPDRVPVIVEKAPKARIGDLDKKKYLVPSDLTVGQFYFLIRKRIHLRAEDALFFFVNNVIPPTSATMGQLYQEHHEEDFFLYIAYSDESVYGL

| Binder | median log2 fold change |
| --- | --- |
| B1 | 0.229 |
| B2 | -0.103 |
| B3 | 0.286 |
| B4 | 0.118 |
| B5 | -0.282 |
| B6 | -0.126 |
| B7 | 0.199 |
| B8 | -0.0898 |
| B9 | -0.11 |
| B10 | 0.184 |
| B11 | 0.0749 |
| B12 | -0.0943 |
| B13 | 0.0728 |
| B14 | 0.285 |
| B15 | 0.29 |
| B16 | -0.176 |
| B17 | 0.247 |
| B18 | -0.054 |
| B19 | 0.544 |
